Experimental data taken from the supplement of paper PMC10338343.
± gives the standard deviation. Whole data set: some 3,700 sequences, median “pre-steady-state target cleavage rate” near 0.02, cut for the highest 2% near 0.23. The entries are a selection whose mix differs from that of the whole data set.
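Note: 1 nM active piRISC with 0.1 nM target library at 33 °C single turnover.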

The sequences below were run on MILI (PIWIL2) piRISC loaded with Kctd7 piRNA (26 nt) (assay: pre-steady-state target cleavage rate (min^-1); MIWI and MILI are mouse PIWI proteins and EfPiwi is from a freshwater sponge; tags in brackets are library labels; higher = faster piRNA-guided slicing of the target). Details: guide: Kctd7 piRNA 5'p-UGUUAAUCUCUCAGAGAAGGUGACAG; auxiliary factor: 500 nM mouse GTSF1.
Method in brief: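 At 33 °C in HEPES–potassium acetate buffer, a transcribed, DNA-blocked target RNA library […] was exposed for 0–8 or 0–960 min to 1 nM active affinity-purified piRISC carrying a single synthetic guide, with or without 500 nM GTSF1 partner protein. Uncleaved targets were sequenced and normalised to depth and to weakly complementary targets. With three trials pooled and k3 capped at 0.0001 min^-1, a burst-and-steady-state fit produced the pre-steady-state cleavage rate.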
UAGUGACACACCUUCUGUGAGAGAUAAACA was tested, and the “pre-steady-state target cleavage rate” value was 0.087 ± 0.041. In the case of UAGUGACUCACCUUACUCUGAGAGAUUAACA, the “pre-steady-state target cleavage rate” value is reported as 0.0622 ± 0.007. In the case of UAGUGACAGUCCUAUCUCUGAGAGAUUAACA, the “pre-steady-state target cleavage rate” value is reported as 0.0434 ± 0.0048. For UAGUGACAGACGAUCUCUGAGAGAUUAACA, the “pre-steady-state target cleavage rate” value was 0.0147 ± 0.0042. In the case of UAGUGACAGACCUUCACUGUGAGAUUAACA, the “pre-steady-state target cleavage rate” value is reported as 0.0374 ± 0.0089. UAGUGUGUCACCUUCUUGAGAGAUUAACA was tested, and the “pre-steady-state target cleavage rate” value was 0.0331 ± 0.014. In the case of UAGUGACACACCUUCUUGAGAGAUUAACA, the “pre-steady-state target cleavage rate” value is reported as 0.0144 ± 0.0065. UAGUGACUCACCUUCUCAGAGACAUUAACA was tested, and the “pre-steady-state target cleavage rate” value was 0.0723 ± 0.0081. UAGUGACAGUGGUUCUCUGAGAGAAAUACA was tested, and the “pre-steady-state target cleavage rate” value was < 0.0001. UAGUGACAGUGCUACUCUGAGAGAUUAACA was tested, and the “pre-steady-state target cleavage rate” value was 0.00794 ± 0.0011. For UAGUCUGUCACCUUCUCUCAGAGAUUUACA, the “pre-steady-state target cleavage rate” value was 0.0575 ± 0.014. UAGUCUGUCACCUUCCUCUGAGAGAUUAACA was tested, and the “pre-steady-state target cleavage rate” value was 0.178 ± 0.012. UAGUGACAGACCUUCUCUGAGGGAUUAACA was tested, and the “pre-steady-state target cleavage rate” value was 0.0385 ± 0.013. In the case of UAGUGUGUCACCUCCUCUGAGAGAUUAACA, the “pre-steady-state target cleavage rate” value is reported as 0.189 ± 0.014. In the case of UAGUGACAGUGCUUCGCUGAGAGAUUAACA, the “pre-steady-state target cleavage rate” value is reported as 0.0288 ± 0.0063. With UAGUGACAGUGCUUCUCUGAGAGAUUUAACA the “pre-steady-state target cleavage rate” value was 0.0519 ± 0.0095. In the case of UAGUGACAGUGGUUCGCUGAGAGAUUAACA, the “pre-steady-state target cleavage rate” value is reported as 0.00402 ± 0.002. For UAGUGACACACCUACACUGAGAGAUUAACA, the “pre-steady-state target cleavage rate” value was 0.0756 ± 0.011. UAGUCUGUGUCCUUCUCUGAGAGAUUAUGA was tested, and the “pre-steady-state target cleavage rate” value was 0.00809 ± 0.0036. For UAGUCUGUCACCUUCUCUCAGAGUUUAACA, the “pre-steady-state target cleavage rate” value was 0.0257 ± 0.008. With UAGUGACACACCUUCUCUGAGUAGAUUAACA the “pre-steady-state target cleavage rate” value was 0.00545 ± 0.0038. UAGUGACAGACCUUCUCUGAGAAGAUUAACA was tested, and the “pre-steady-state target cleavage rate” value was 0.0136 ± 0.0056. With UAGUGACAGUCCUUCUCUGAGAGAUUAGACA the “pre-steady-state target cleavage rate” value was 0.0313 ± 0.011. UAGUGACAGACCUUCUCUGAGAGAGUAACA was tested, and the “pre-steady-state target cleavage rate” value was 0.0379 ± 0.015. UAGUCUGUCACCUUCUCUGAGUGAUUAACA was tested, and the “pre-steady-state target cleavage rate” value was 0.00807 ± 0.0044. For UAGUGAGUCACCUUCACUGAGAGAUUAACA, the “pre-steady-state target cleavage rate” value was 0.191 ± 0.014. With UAGUGACAGUGGAAGAGACUCAGAAUAACA the “pre-steady-state target cleavage rate” value was < 0.0001. UAGUCUGUCUCCUUCUCUGACAGAUUAACA was tested, and the “pre-steady-state target cleavage rate” value was 0.0107 ± 0.0025. In the case of UAGUGACAGACCUACUCUGAGAGAUUAAGA, the “pre-steady-state target cleavage rate” value is reported as 0.0116 ± 0.0044. For UAGUCUGUCACCUUCUCUCAGAGAAUAACA, the “pre-steady-state target cleavage rate” value was 0.00547 ± 0.0042. For UAGUGUGUCACCUUGUCUGAGACAUUAACA, the “pre-steady-state target cleavage rate” value was 0.0447 ± 0.013. UAGUGAGUCUCCUUCUCUGAGAGAUUAAGA was tested, and the “pre-steady-state target cleavage rate” value was 0.0177 ± 0.0071. For UAGUGUGUCACCUUCACUGAGAGAUUAUGA, the “pre-steady-state target cleavage rate” value was 0.0206 ± 0.012. For UAGUGACUCACCUUCUCUCAGAGAUUAAGA, the “pre-steady-state target cleavage rate” value was 0.00948 ± 0.0055. In the case of UAGUGACACACCUAGUCUGAGAGAUUAACA, the “pre-steady-state target cleavage rate” value is reported as 0.0588 ± 0.0073. For UAGUGACAGUGCUUCUCUGAGAGAAUAAGA, the “pre-steady-state target cleavage rate” value was < 0.0001. For UAGUGACAGUGGAACCUCUGAGAGAUUAACA, the “pre-steady-state target cleavage rate” value was 0.00796 ± 0.0014. For UAGUGACACACCUUCUCUGAGAGAUUAAUA, the “pre-steady-state target cleavage rate” value was 0.183 ± 0.033. In the case of UAGUCUGUCACCUUCUCUGUGAGAUUUACA, the “pre-steady-state target cleavage rate” value is reported as 0.0713 ± 0.016. UAGUGACAGUGGAUCUCUGAGACGAUUAACA was tested, and the “pre-steady-state target cleavage rate” value was < 0.0001. In the case of UAGUGACAGACCUUCUCUGAGAGAUGUAACA, the “pre-steady-state target cleavage rate” value is reported as 0.0877 ± 0.012. For UAGUGAGUCACCAUGUCUGAGAGAUUAACA, the “pre-steady-state target cleavage rate” value was 0.0635 ± 0.011. UAGUGACUCACCUUCUCUGAGACAUUAACA was tested, and the “pre-steady-state target cleavage rate” value was 0.0875 ± 0.012. For UAGUGACACACCUUCUGUGACAGAUUAACA, the “pre-steady-state target cleavage rate” value was 0.0375 ± 0.012. In the case of UAGUGACUCACCUUCUCUGAGAGAUAACA, the “pre-steady-state target cleavage rate” value is reported as 0.0122 ± 0.0048. In the case of UAGUGACUCACCUUCUGUGUGAGAUUAACA, the “pre-steady-state target cleavage rate” value is reported as 0.0184 ± 0.0032. With “UAGUGACAGACCUUCUCUGAGAGAUUAACG [g2:g21:cont:t1G]” the “pre-steady-state target cleavage rate” value was 0.0801 ± 0.019. In the case of UAGUGAGUCACCUUCUGUGAGAGAUUAUCA, the “pre-steady-state target cleavage rate” value is reported as 0.0169 ± 0.0072. UAGUGACAGACCUUGUCUGAGAGAUUUACA was tested, and the “pre-steady-state target cleavage rate” value was 0.0122 ± 0.0073. With UAGUGAGUCAGCUUCUCUGAGAGAUUAUCA the “pre-steady-state target cleavage rate” value was 0.0836 ± 0.016. With UAGUCUCACACCUUCUCUGAGAGAUUAUGA the “pre-steady-state target cleavage rate” value was 0.00641 ± 0.0043. For UAGUCUGUGACCUUCUCUGAGAGAUUAUCA, the “pre-steady-state target cleavage rate” value was 0.0656 ± 0.0094. In the case of UAGUGACUCACCAUCACUGAGAGAUUAACA, the “pre-steady-state target cleavage rate” value is reported as 0.0863 ± 0.0095. With UAGUGACAGUGCUUCUCUGACAGAUUAUCA the “pre-steady-state target cleavage rate” value was < 0.0001. UAGUGACACACCUUCUCUGUGAGAUUAUCA was tested, and the “pre-steady-state target cleavage rate” value was 0.0641 ± 0.018. In the case of UAGUGACAGACCAUCUCUGACAGAUUAACA, the “pre-steady-state target cleavage rate” value is reported as 0.00938 ± 0.004. With UAGUGACAGUGGUUGUCUGAGAGAUUAACA the “pre-steady-state target cleavage rate” value was 0.00764 ± 0.0027. With UAGUGACAGACCAACUCUGAGAGAUUAACA the “pre-steady-state target cleavage rate” value was 0.0108 ± 0.0026. UAGUCUCUCACCUUCUCUGAGAGAUAAACA was tested, and the “pre-steady-state target cleavage rate” value was 0.0206 ± 0.0076. With UAGUCUGUCACCUACUCAGAGAGAUUAACA the “pre-steady-state target cleavage rate” value was 0.103 ± 0.01. In the case of UAGUGACGCACCUUCUCUGAGAGAUUAACA, the “pre-steady-state target cleavage rate” value is reported as 0.186 ± 0.015. UAGUGACUCACCUACUCUGUGAGAUUAACA was tested, and the “pre-steady-state target cleavage rate” value was 0.0356 ± 0.0032. UAGUGACAGUCCGUUCUCUGAGAGAUUAACA was tested, and the “pre-steady-state target cleavage rate” value was 0.116 ± 0.0067. With UAGUGACAGUGGUUCUCAGAGAGAUUUACA the “pre-steady-state target cleavage rate” value was < 0.0001. With UAGUCUGUCACCUUCUCAGUGAGAUUAACA the “pre-steady-state target cleavage rate” value was 0.0281 ± 0.0036. UAGUGACAGUGGAAGAGUGAAAGAUUAACA was tested, and the “pre-steady-state target cleavage rate” value was < 0.0001. For UAGUGUGUCACCUUCUCUGAGAGACUAACA, the “pre-steady-state target cleavage rate” value was 0.137 ± 0.031. For UAGUGACUCACCUUCUCUGAGACAUUAUCA, the “pre-steady-state target cleavage rate” value was 0.00475 ± 0.0037. UAGUGUGUCACCAUUCUCUGAGAGAUUAACA was tested, and the “pre-steady-state target cleavage rate” value was 0.154 ± 0.012. UAGUGAGUGUCCUUCUCUGAGAGAUUAUGA was tested, and the “pre-steady-state target cleavage rate” value was 0.00399 ± 0.0033. With UAGUGUUCACCUUCUCUGAGAGAUUAACA the “pre-steady-state target cleavage rate” value was 0.177 ± 0.019.
